Results: the supplement of paper PMC8728848
Some of the results follow.

How the values were obtained:
Test in all cases: glycan array binding signal (z-score within array); higher = stronger binding
Details in all cases: glycan notation: IUPAC condensed, linker removed
[1] = target: Gal(b1-4)GlcNAc(b1-2)Man(a1-6)[Man(a1-3)]Man(b1-4)GlcNAc(b1-4)GlcNAc
How it was run: (§1)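 The binding signal is a Z-score computed within each array and averaged over linkers. Arrays of the same protein sequence at different concentrations or buffers were also averaged together. Data originate from 3228 arrays in the Consortium for Functional Glycomics database, kept only where the protein sequence was available.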

[2] = target: Gal(b1-4)GlcNAc(b1-2)[Gal(b1-4)GlcNAc(b1-4)]Man(a1-3)[Gal(b1-4)GlcNAc(b1-2)Man(a1-6)]Man(b1-4)GlcNAc(b1-4)GlcNAc
How it was run: as §1

[3] = target: Gal(b1-4)GlcNAc(b1-2)[Gal(b1-4)GlcNAc(b1-4)]Man(a1-3)[Gal(b1-4)GlcNAc(b1-2)[Gal(b1-4)GlcNAc(b1-6)]Man(a1-6)]Man(b1-4)GlcNAc(b1-4)GlcNAc
How it was run: as §1

[4] = target: Gal(b1-4)GlcNAc(b1-2)[Gal(b1-4)GlcNAc(b1-4)]Man(a1-3)[GlcNAc(b1-4)][Gal(b1-4)GlcNAc(b1-2)Man(a1-6)]Man(b1-4)GlcNAc(b1-4)GlcNAc
How it was run: as §1

[5] = target: Gal(b1-4)GlcNAc(b1-2)[Gal(b1-4)GlcNAc(b1-6)]Man(a1-6)[GlcNAc(b1-4)][Gal(b1-4)GlcNAc(b1-2)Man(a1-3)]Man(b1-4)GlcNAc(b1-4)GlcNAc
How it was run: as §1

[6] = target: Gal(b1-4)GlcNAc(b1-3)Gal(b1-3)GlcNAc
How it was run: as §1

[7] = target: Gal(b1-4)GlcNAc(b1-3)Gal(b1-4)Glc
How it was run: as §1

[8] = target: Gal(b1-4)GlcNAc(b1-3)Gal(b1-4)GlcNAc
How it was run: as §1

[9] = target: Gal(b1-4)GlcNAc(b1-3)Gal(b1-4)GlcNAc(b1-3)Gal(b1-4)GlcNAc
How it was run: as §1

[10] = target: Gal(b1-4)GlcNAc(b1-3)Gal(b1-4)[Fuc(a1-3)GlcNAc(b1-6)]Gal(b1-4)Glc
How it was run: as §1

[11] = target: Gal(b1-4)GlcNAc(b1-3)Gal(b1-4)[Fuc(a1-3)]GlcNAc(b1-3)Gal(b1-4)[Fuc(a1-3)]GlcNAc
How it was run: as §1

[12] = target: Gal(b1-4)GlcNAc(b1-3)GalNAc
How it was run: as §1

[13] = target: Gal(b1-4)GlcNAc(b1-3)[Gal(b1-4)GlcNAc(b1-6)]Gal(b1-4)GlcNAc
How it was run: as §1

[14] = target: Gal(b1-4)GlcNAc(b1-3)[Gal(b1-4)GlcNAc(b1-6)]GalNAc
How it was run: as §1

[15] = target: Gal(b1-4)GlcNAc(b1-3)[GlcNAc(b1-6)]Gal(b1-4)GlcNAc
How it was run: as §1

[16] = target: Gal(b1-4)GlcNAc(b1-6)Gal(b1-4)GlcNAc
How it was run: as §1

[17] = target: Gal(b1-4)GlcNAc(b1-6)Gal(b1-4)GlcNAc(b1-6)GalNAc
How it was run: as §1

[18] = target: Gal(b1-4)GlcNAc(b1-6)GalNAc
How it was run: as §1

[19] = target: Gal(b1-4)GlcNAc(b1-6)[Gal(b1-3)]GalNAc
How it was run: as §1

[20] = target: Gal(b1-6)Gal
How it was run: as §1

[21] = target: Gal3S(b1-3)GalNAc
How it was run: as §1

[22] = target: Gal3S(b1-3)GlcNAc
How it was run: as §1

[23] = target: Gal3S(b1-3)[Fuc(a1-4)]GlcNAc
How it was run: as §1

[24] = target: Gal3S(b1-4)Glc
How it was run: as §1

[25] = target: Gal3S(b1-4)Glc6S
How it was run: as §1

[26] = target: Gal3S(b1-4)GlcNAc
How it was run: as §1

[27] = target: Gal3S(b1-4)GlcNAc6S
How it was run: as §1

[28] = target: Gal3S(b1-4)[Fuc(a1-3)]Glc
How it was run: as §1

[29] = target: Gal3S(b1-4)[Fuc(a1-3)]Glc6S
How it was run: as §1

[30] = target: Gal3S4S(b1-4)GlcNAc
How it was run: as §1

[31] = target: Gal3S6S(b1-4)GlcNAc
How it was run: as §1

[32] = target: Gal3S6S(b1-4)GlcNAc6S
How it was run: as §1

[33] = target: Gal4S(b1-4)GlcNAc
How it was run: as §1

[34] = target: Gal4S6S(b1-4)GlcNAc
How it was run: as §1

[35] = target: Gal6S(b1-3)GlcNAc
How it was run: as §1

[36] = target: Gal6S(b1-3)GlcNAc6S
How it was run: as §1

[37] = target: Gal6S(b1-4)Glc
How it was run: as §1

[38] = target: Gal6S(b1-4)Glc6S
How it was run: as §1

[39] = target: Gal6S(b1-4)GlcNAc
How it was run: as §1

[40] = target: Gal6S(b1-4)GlcNAc6S
How it was run: as §1

[41] = target: GalNAc(a1-3)Gal
How it was run: as §1

[42] = target: GalNAc(a1-3)GalNAc
How it was run: as §1

[43] = target: GalNAc(a1-3)GalNAc(a1-3)Gal(a1-4)Gal(b1-4)GlcNAc
How it was run: as §1

[44] = target: GalNAc(a1-3)GalNAc(b1-3)Gal(a1-4)Gal(b1-4)Glc
How it was run: as §1

[45] = target: GalNAc(b1-3)Gal
How it was run: as §1

B1: LSectin (Mus musculus), Q8BNX1 (protein)
chain: MNTGEYNKLGSAIEEVSRGQLGRWECYKQRLFFLVLALLVATVLWALILSTLLSSASSKLRVLLSHQDLLRTNASEQKMTLSSLKDDIGACRNCCSVTKAQLQTTLAEFKDIQAKLMEQESILKELQERVTQDLAKASRDRENIRSELFQALEAVKRQNSSCEQCPPSWLPFQGSCYYFSETQATWDTAQSYCGGQGAHLVIVRGLNEQGFLSQHTRGRGYWLGLRAVRHLNKIQGYRWVDGASLNFSHWNSGEPNDSRGHEDCIMMLHSGLWNDAPCTNERDGWICEKRSSCY
glycan array binding signal (z-score) [1]: -0.141
glycan array binding signal (z-score) [2]: -0.185
glycan array binding signal (z-score) [3]: -0.178
glycan array binding signal (z-score) [4]: -0.186
glycan array binding signal (z-score) [5]: -0.184
glycan array binding signal (z-score) [6]: -0.165
glycan array binding signal (z-score) [7]: -0.186
glycan array binding signal (z-score) [8]: -0.177
glycan array binding signal (z-score) [9]: -0.175
glycan array binding signal (z-score) [10]: -0.19
glycan array binding signal (z-score) [11]: -0.175
glycan array binding signal (z-score) [12]: -0.184
glycan array binding signal (z-score) [13]: -0.184
glycan array binding signal (z-score) [14]: -0.192
glycan array binding signal (z-score) [15]: -0.184
glycan array binding signal (z-score) [16]: -0.156
glycan array binding signal (z-score) [17]: -0.153
glycan array binding signal (z-score) [18]: -0.15
glycan array binding signal (z-score) [19]: -0.175
glycan array binding signal (z-score) [20]: -0.188
glycan array binding signal (z-score) [21]: -0.163
glycan array binding signal (z-score) [22]: -0.159
glycan array binding signal (z-score) [23]: 2.46
glycan array binding signal (z-score) [24]: -0.156
glycan array binding signal (z-score) [25]: 0.457
glycan array binding signal (z-score) [26]: -0.175
glycan array binding signal (z-score) [27]: -0.164
glycan array binding signal (z-score) [28]: -0.148
glycan array binding signal (z-score) [29]: -0.167
glycan array binding signal (z-score) [30]: -0.155
glycan array binding signal (z-score) [31]: -0.17
glycan array binding signal (z-score) [32]: -0.152
glycan array binding signal (z-score) [33]: -0.174
glycan array binding signal (z-score) [34]: -0.164
glycan array binding signal (z-score) [35]: -0.188
glycan array binding signal (z-score) [36]: -0.185
glycan array binding signal (z-score) [37]: -0.168
glycan array binding signal (z-score) [38]: -0.151
glycan array binding signal (z-score) [39]: -0.138
glycan array binding signal (z-score) [40]: -0.135
glycan array binding signal (z-score) [41]: -0.123
glycan array binding signal (z-score) [42]: -0.164
glycan array binding signal (z-score) [43]: -0.19
glycan array binding signal (z-score) [44]: -0.191
glycan array binding signal (z-score) [45]: -0.158
